Reference: the supplement of paper PMC11417369
± gives the standard deviation of the averaged measurements. This is one part of the list.

These sequences were tested on PfAP2-G AP2 domain (GST-tagged) (assay: gcPBM binding intensity (ln(normalized median fluorescence intensity)); higher = stronger DNA binding).
Outline: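 An Agilent 4 × 180k array of primer-extended double-stranded 36-bp intergenic genomic probes, with negative controls, was incubated for 1 h with GST-tagged P. falciparum DNA-binding domains expressed in E. coli. Alexa488 anti-GST antibody detected bound protein, scanned at 488 nm. Binding intensity is the highest Masliner-normalised natural-log median intensity across replicate spots of either probe orientation.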

| Sequence | gcPBM binding intensity (ln) |
| --- | --- |
| ATGAACATACAATATACACACATATAGATTTATATT [CACACA_site6524] | 9.83 ± 0.071 |
| TCATTATTAATATGTAGTACATTATATGATATGTAT [XGTACX_site8978] | 11.4 ± 0.85 |
| CATTCAAAGAAAAACTGTACGTGTAGCAAACGTCAT [XGTACX_site2576] | 11.6 ± 0.81 |
| CAAATACCCGGACACACACACACAAAAAAAAAAAAA [CACACA_site4441] | 11 ± 0.88 |
| ATGGGTATATTTCCACGTACAAAAAATCCGAATTGC [XGTACX_site1490] | 11.3 ± 0.9 |
| ATATAATTACATTGATGTACACGAAATGATTAACAT [XGTACX_site5183] | 11.7 ± 1.1 |
| TTTATACAATTAGACACACACAAAAAGTATATATAT [CACACA_site1082] | 10.14 ± 0.078 |
| TGATTTGTGCCGATTTGTACACATTTATATATATAT [XGTACX_site2154] | 11.3 ± 0.78 |
| AACAGACAAAGACACACACACATACATACATACATA [CACACA_site6351] | 10.2 ± 0.22 |
| TATCATATTTTTATATGTACATAACATAAAAAAAAA [XGTACX_site2152] | 11.2 ± 0.79 |
| TACATACATACATACACACACATATATATATATATA [CACACA_site1944] | 10.5 ± 0.23 |
| ATTTTTTCATATTCTACACACGTGAACAAATGAGTC [CACACA_site5635] | 10.3 ± 0.22 |
| CAATGTTAACATATTACACACATATGTATATATAAT [CACACA_site8878] | 10.12 ± 0.035 |
| GACAACTCTTTTCATACACACAAAAAAAAAAAAATA [CACACA_site2361] | 10.3 ± 0.35 |
| TCACATATATATTAATGTACATATATTTTTTATGTA [XGTACX_site5125] | 11.2 ± 0.54 |
| GATATATCCTATGTTATTTTTATGGTGTAATTTAGT [XGTACX_negctrl_site112] | 10 ± 0.14 |
| CATCCACAAATATGTACACACATATATAAATATGTA [CACACA_site7407] | 11.4 ± 0.93 |
| ATAATAACAAGGCGCTGTACTGTACCGTTTTTCATA [XGTACX_site6135] | 11.2 ± 0.77 |
| TTTTTTTTATGTATCACACATAATTTTTTATTATGA [CACACA_site5534] | 9.97 ± 0.057 |

| Sequence | gcPBM binding intensity (ln) |
| --- | --- |
| AGAAAGAAAATATATACACACAAAAAAAAATATATA [CACACA_site1412] | 9.945 ± 0.049 |
| GATTTATACAAATATGTACACACTAATTATATATTA [CACACA_site8045] | 11.5 ± 0.87 |
| GGCATGACTATCTGCACACATAAAAATAAGAAATAC [CACACA_site841] | 10.2 ± 0.2 |
| TTTTTTTTCTCACAAAAAATAATTAACAAAAAGGAA [XGTACX_negctrl_site154] | 10.2 ± 0.32 |
| ATAAACAGAAAAAAAAAAAAAAAAAAAAAAAAAAAA [CACACA_negctrl_site143] | 9.69 ± 0.42 |
| ATAAAAAAAAAAAATACACACATATATTTATTTATA [CACACA_site6903] | 9.6 ± 0.042 |
| TTTATATGGATTTTTTTTTAATATTTCTTTTAATTT [TGCATGCA_negctrl_site361] | 9.62 ± 0.11 |
| TTAATATAAGCAAATACACACACACCGATATATATA [CACACA_site9269] | 10.1 ± 0.16 |
| GTTGCACAATGTTACACACACAATATAGATCGTTAA [CACACA_site6717] | 10.07 ± 0.028 |
| TAAAAAAAAAAAAAAAGTACAAAAAAAATATTTTTT [XGTACX_site7941] | 11.4 ± 0.57 |
| ATATGCTATTTACTAGTGCAAAATATTTAAAATATG [GTGCAC_site9517] | 10.2 ± 0.28 |
| TTATTCTAAAAATATACACACAACAACAAACAAACA [CACACA_site1543] | 10.5 ± 0.41 |
| ATGTGTTTCTTCAATTGTACTAAAAGGTATATATTG [XGTACX_site4608] | 11 ± 0.65 |
| TTCAGGTAATAACATTGTACATGTGTATCATAATTA [XGTACX_site6740] | 11 ± 0.47 |
| TTTTTTTTTTTTTTTTTTTTACAGAAAAATATTAAA [CACACA_negctrl_site128] | 9.62 ± 0.45 |
| AATCATTAAAGCATAATGTTTATGATCAATATGAAA [CACACA_negctrl_site887] | 9.715 ± 0.064 |
| TAGTAACTTGTATTCACACAAATTATATTATATTAC [CACACA_site5041] | 9.965 ± 0.021 |
| TATATAATATATAAATGTACTTTTGTCTTATATGAA [XGTACX_site7211] | 11 ± 0.73 |
| ATACTATAATATAAAACACACATATGTACCTTCTAA [CACACA_site7323] | 10.8 ± 0.54 |

| Sequence | gcPBM binding intensity (ln) |
| --- | --- |
| ATTATTTAAATTTAACGTACGGAATAAGACATAGAT [XGTACX_site8622] | 11.1 ± 0.59 |
| AAAAAAAATAATGTTGCACACAACAACAAACAAAAA [CACACA_site3290] | 10.1 ± 0.31 |
| AATATATATATATGTGCACACATATATAATATGTAT [CACACA_site716] | 10.2 ± 0.18 |
| TACACCCACATATATATACACACTTTTATTTAAATA [CACACA_site1596] | 10.2 ± 0.071 |
| CAATATGGAAAATAAAGTACGCACACAAAAATTCTC [XGTACX_site4793] | 11.5 ± 0.79 |
| TAGATAAAATGAACATGTACTCATCTTAATATATAT [XGTACX_site34] | 11.4 ± 1.1 |
| TGCTCTAATTTATATACACACAAATATGTACACATA [CACACA_site7845] | 11.7 ± 1.2 |
| TTATATCCAACTTGAAAAAAGGTATATGTTTATATA [CACACA_negctrl_site1746] | 9.91 ± 0.028 |
| TTTTTTTTTTTTTGGAGTACATGTTTATAACATAAT [XGTACX_site1799] | 11.6 ± 1.1 |
| TTTCATAAATAATAAAATAAAATATGAAGCAAAAGG [CACACA_negctrl_site1767] | 9.99 ± 0.11 |
| TAATTTTTTTAAGAGAGTACATGACTCAACAGTTTA [XGTACX_site3103] | 11.1 ± 0.75 |
| GATAATACATAAATTTATAAGTGGAAGAATAAATAA [CACACA_negctrl_site698] | 10.09 ± 0.057 |
| GAAATATTACAAAGTACATGCAACGAAAATTTCAGT [TGCATGCA_site608] | 10.9 ± 0.52 |
| CTTTTAGAATAATCAGTGCAAAAAAAAAAAAAAAAA | 9.75 ± 0.62 |
| TTTTTTTTCAAAAATACAAAAAAAAAAGAAAAAAAC [CACACA_negctrl_site625] | 10.3 ± 0.33 |
| ACAAACAAATAAATATGTACGAATAAATAAAATTTT [XGTACX_site4664] | 11 ± 0.56 |
| TTAAATGTTCTATATACATGCAATGATATGTTTCTG [TGCATGCA_site317] | 9.8 ± 0.071 |
| TCAAAGTAGGCTTATATGCACACTTTGAAATATTAT [CACACA_site1920] | 9.765 ± 0.021 |
